According to patent publication US20050256058:

Test system: T1, Cbz-Ala-Ala-AAsn-CH═CH-CON(CH3)-2-Napth
T1 sequence: AAN

Cathepsin B
kobs/[I]: NI

Gingipain K
kobs/[I]: 6 M⁻¹ s⁻¹
